From PubChem BioAssay AID493208 (National Center for Advancing Translational Sciences (NCATS), 2011)
About 340 (0.77%) of roughly 44,000 compounds were called active. Another 5% or so got no clear call; they are omitted. Calls come from the whole dose curve; as a rule, active = well fitted inhibition curve with a large enough effect; inconclusive = small, poorly fitted or top-dose-only effect; inactive = flat fitted curve, though single readings scatter. The list shows a part of the results.

Assay: Acumen qHTS Assay for Inhibitors of the mTORC1 Signaling Pathway in MEF (Tsc2-/-, p53-/-) Cells: Sytravon;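 note: plate controls were DMSO for no effect and rapamycin for full effect; nearly all actives have a fitted effect of over 50% in size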
Conditions: phospho-rpS6 immunofluorescence/PI, 24 h; series mostly up to 38.3 µM; activity change, negative = inhibition: at the top concentration
Procedure, shortened: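 Compounds act on Tsc2-/-, p53-/- fibroblasts carrying an empty vector for 24 h before fixation and dual staining for phospho-S6 and DNA (propidium iodide). Values are percentages of cells above a rapamycin-defined pS6/PI threshold.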

Activity change, negative = inhibition, inactive:
Cc1ccc2c(c1)cc1c(=O)n(CC(=O)N(C)c3ccccc3)nc(C)n12 0.762%
CC(=O)N1CCc2c(sc3c2c(=O)n(-c2cccc(Cl)c2C)c(=O)n3Cc2ccccc2C)C1 0.0909%
COc1cccc(-c2nnc(SCC(=O)N3CCCCC3)o2)c1 2.54%
COc1ccc(CNC(=O)C2CCCN(S(=O)(=O)N(C)c3ccc(F)cc3)C2)cc1OC (stereo unspecified) -13.4%
O=C(OCc1cc(=O)n2nc(-c3cccs3)sc2n1)c1cccc(Cl)c1 -4.8%
CCOC(=O)c1cccc(NC(=O)c2ccc3c(c2)nnn3CC)c1 0.499%
Cc1ccc(C)c(Cn2c(=O)n(CC3CCC(C(=O)N4CCOCC4)CC3)c(=O)c3sccc32)c1 (stereo unspecified) 3.87%
Cc1ccc(NC(=O)Cn2c(=O)c(C(F)(F)F)nc3ccccc32)cc1C 2.65%
CCOC(=O)c1ccccc1NC(=O)Cn1nnc2sc3c(c2c1=O)CCCC3 0.75%
Cc1ccc(C(C(=O)NC2CCCCC2)N(C)Cc2ccccc2)cc1 (stereo unspecified) 1.32%
Cc1oc2c(c1C(=O)Nc1ccc(F)c(F)c1)C1=NCCN1C=N2 0.216%
CCc1cccc(CC)c1NC(=O)CCS(=O)(=O)c1ccc(Br)s1 -8.74%
Cn1cc(-c2cc3n(n2)CCC(=O)N3CCCC(=O)NCc2ccc(F)cc2)c2ccccc21 -18.6%
CCOC(=O)c1ccccc1Nc1nc2ccc(C)cc2n2nnnc12 -0.929%
Cc1cccc(C)c1NC(=O)c1nc(S(C)(=O)=O)ncc1N(Cc1ccc(C(C)(C)C)cc1)Cc1ccco1 0%
CCOc1ccc(NC(=O)c2oc3ccccc3c2NC(=O)C2CCCCC2)cc1 -0.296%
CCN1CCN(Cc2c(O)ccc3oc(C)c(C(=O)Nc4ccc(OC)cc4)c23)CC1 5.71%
Cc1ccc(NC(=O)CSc2nc3nc(C)c(Cc4ccccc4)c(C)n3n2)cc1 6.92%
CC(C)CNC(=O)N1CCN(S(=O)(=O)c2ccc3c(ccn3C)c2)CC1 -22.4%
Cc1ccc2oc3c(c(=O)c2c1)C(c1ccccc1F)N(c1ccccn1)C3=O (stereo unspecified) 8.75%
COc1ccc(Cn2ccnc2SCC(=O)Nc2ccc3c(c2)OCO3)cc1 -8.78%
COc1ccc(-c2cc(C(F)(F)F)n3nc(C(=O)Nc4cc(C(F)(F)F)ccc4Cl)cc3n2)cc1OC 7.35%
CN(C)c1ccc(CN(Cc2ccco2)C(=O)COc2ccc(F)cc2)cc1 -25.4%
Cc1ccc(NC(=O)N2CC3CCCN3c3ccccc32)cc1C (stereo unspecified) -7.31%
COc1ccc(C(=O)Nc2ccc(NC(=O)c3cccs3)cc2)cc1OC 1.6%
CC1CCN(S(=O)(=O)c2ccc3c(c2)CCN3C(=O)Nc2cccc(Br)c2)CC1 0.129%
Cc1ccc(-c2nc3n(n2)C(c2ccccc2Cl)C=C(c2ccc(Cl)cc2)N3)cc1 (stereo unspecified) 7.01%
Cc1ccc(S(=O)(=O)NC2(C(F)(F)F)NC(=O)N(c3ccc(F)cc3)C2=O)cc1 (stereo unspecified) 1.53%
CCOC(=O)c1ccc(CN(Cc2ccc(C)cc2)S(=O)(=O)c2ccc(F)c(C(=O)Nc3ccc(C)c(F)c3)c2)cc1 7.27%
CCOc1ccc(C(=O)c2cn(CC(=O)Nc3ccc(OC)cc3)c3cc4c(cc3c2=O)OCO4)cc1 -11.2%
O=C(NCC(c1ccc2c(c1)OCO2)N1CCN(c2ccccc2)CC1)C(=O)Nc1ccc(F)cc1 (stereo unspecified) -8.55%
CCOC(=O)c1c(C)[nH]c(C)c1S(=O)(=O)N1CCCC(C(=O)Nc2ncccc2C)C1 (stereo unspecified) -0.454%
Cc1oc(-c2ccc(C(=O)NCCC(C)C)cc2)nc1CS(=O)(=O)c1ccccc1 0%
CC(C)CCn1c(=O)c2cccnc2n(CC(=O)Nc2ccccc2)c1=O -12.6%
N#Cc1c[nH]n2c(NC3CCCC3)c(-c3cccc(Br)c3)nc12 -25.9%
COC(=O)c1sccc1S(=O)(=O)N(CC(=O)NCc1ccc(C)cc1)c1ccccc1 5.8%
CCCC(=O)N1CCc2cc(OC)c(OC)cc2C1COc1ccccc1OC (stereo unspecified) 8.74%
CCOC(=O)Cc1cc(C(=O)Nc2ccc(Br)cc2)sc1-c1ccc(C)cc1 2.58%
Cc1nc2sc(C)c(C)n2c(=O)c1S(=O)(=O)N1CCN(c2ccccc2F)CC1 -0.55%
Cc1cc(C)cc(OCC(=O)Nc2nonc2-c2ccc(Br)cc2)c1 1.46%
Cc1c(C(=O)N(Cc2ccc(N(C)C)cc2)CC2CCCO2)oc2ccccc12 (stereo unspecified) 3.97%
Cc1ccc2c(Sc3ccc(Cl)cc3)c(C(=O)NCCC(C)C)[nH]c2c1 0.728%
CCCSc1ncc(Cl)c(C(=O)Nc2ccc(S(=O)(=O)N3CCCC(C)C3)cc2)n1 (stereo unspecified) -9.19%
CCc1nnc(SCc2nc(-c3ccccc3Cl)oc2C)c2cc3sc(C)cc3n12 -2.57%
O=C(Nc1nc2c(F)cccc2s1)c1ccc(S(=O)(=O)N2CCOCC2)cc1 4.91%
Cc1ccc(NC(=O)CN2C(=O)c3cccnc3Sc3ccccc32)cc1C -6.87%
COc1ccc(CN(C(=O)c2ccccc2F)C2CCS(=O)(=O)C2)cc1 (stereo unspecified) -0.102%
CC(=O)N1c2ccc(S(=O)(=O)N3CCCCCC3)cc2CC1C(=O)NCc1ccccc1 (stereo unspecified) 0%
O=C(Nc1ccc2oc(-c3ccccc3)nc2c1)c1ccc2ccccc2c1 3.68%
COc1cc2c(cc1OC)C(COc1ccc3c(C)cc(=O)oc3c1)N(C(=O)c1cccc(OC)c1OC)CC2 (stereo unspecified) 3.71%
COc1ccc2c(c1)c1c(c(=O)n(Cc3ccccc3)c(=O)n1CC(=O)Nc1cc(C)cc(C)c1)n2C -2.65%
CCOc1ccc(NC(=O)N2CCC(CN3CCCCCC3)CC2)cc1 -9.18%
Cc1cccc(N2CCN(C(=O)c3ccc4c(c3)c(C)c(C)n4C)CC2)c1C -3.94%
Cc1cc(C)cc(NC(=O)CSc2oc(-c3ccco3)nc2S(=O)(=O)c2ccccc2)c1 4.49%
Cc1ccc2c(n1)sc1c(=O)n(-c3cccc(C(F)(F)F)c3)nnc12 -1.94%
Clc1ccc(OCc2nc(-c3ccc(-n4cccc4)cc3)no2)cc1 4.51%
Cc1ccc(Cl)cc1NC(=O)CCCn1c(=O)c2cccn2c2ccccc21 1.83%
COc1ccc(-c2nc3scc(CCNS(=O)(=O)c4cc(F)ccc4OC)n3n2)cc1OC 1.17%
CN(C(=O)CSc1nnc(-c2ccc([N+](=O)[O-])cc2)o1)C1CCCCC1 -1.39%
Cc1ccc(CN2CCSc3ccc(C(=O)Nc4cc(C)cc(C)c4)cc32)cc1 -16.9%
CC(=O)N1CCc2c(sc3nc(SCC(N)=O)n(-c4ccc(F)c(Cl)c4)c(=O)c23)C1 5.78%
Clc1ccc(Nc2c(-c3cccs3)nc3ccc(Cl)cn23)cc1 -0.0946%
COc1ccc(CCNC(=O)Cn2c(=O)cc(C(F)(F)F)c3c(C)nn(C)c32)cc1OC 3.83%
CCc1cccc(NC(=O)c2cc3c(=O)[nH]c4ccccc4c3n2C)c1 -5.57%
CCOC(=O)c1sc2nc(C)n(CC(=O)Nc3cccc(Cl)c3)c(=O)c2c1C 3.32%
Cc1ccc(C)c(CSC2=NC(C)(C)Nc3ccccc32)c1 -4.5%
COc1ccc(CN(C)S(=O)(=O)c2nnc(NC(=O)C(C)C)s2)cc1OC 0%
CC(=O)c1cccc(NC(=O)CSc2nnc3ccc(-c4ccc(Cl)cc4)nn23)c1 5.81%
COc1ccccc1NC(=O)C1=C(C)Nc2nc(SCc3ccccc3F)nn2C1c1cccnc1 (stereo unspecified) 0%
Cc1ccc(Cl)cc1NC(=O)c1sc2nc(-c3ccccc3)cn2c1C -11.2%
C=CCc1c(C)nc2nc(SCC(=O)Nc3cccc(Cl)c3)nn2c1C 4.19%
CC(C)CN(CC(C)C)c1nc(-c2ccc(Cl)cc2)nc2ccccc12 2.4%
CCOC(=O)c1c(C)oc2nc(C)nc(N(CC(C)C)CC(C)C)c12 0.273%
O=C(NCCCN1CCN(c2ccc(F)cc2)CC1)C1COc2ccccc2C1 (stereo unspecified) -5.98%
COc1ccc(Cl)cc1NC(=O)Cn1c(=O)n(Cc2nc(C)no2)c(=O)c2ccccc21 -4.85%
CCc1ccc(NC(=O)c2ccc3c(=O)n4nc(Nc5ccccc5C)sc4nc3c2)cc1 -2.15%
O=C(Nc1ccccc1C(=O)OCc1cc(=O)n2c3c(sc2n1)CCCC3)c1ccccc1 0.235%
O=C(CCS(=O)(=O)c1ccccc1)N(Cc1cccnc1)c1nc2c(Cl)cccc2s1 -3.59%
CCCCCNC(=O)c1cc2c(=O)n3ccccc3nc2n1C -8.58%
Clc1cccc(-n2ncc3c(NCCc4ccccc4)ncnc32)c1 3.04%
CCCOc1ccc(C2C(=O)N(C3CCCCC3)CC(=O)N2CCc2ccccc2)cc1OC (stereo unspecified) 0%
CCOC(=O)c1cccc(NS(=O)(=O)c2cc(-c3cnc(C)o3)ccc2OC)c1 4.69%
CN(C)C(=O)c1ccc(NC(=O)Cn2nc(-c3ccccc3)c3ccccc3c2=O)cc1 0.307%
CCOC(=O)c1c(NC(=O)COc2cc(C)ccc2C(C)C)sc2c1CCCC2 -1.55%
Cc1cccc(NC(=O)c2c(NC(=O)c3cccs3)sc3c2CCC(C)C3)c1 (stereo unspecified) 5.28%
CCCCNC(=O)C(CC)Sc1nnc(-c2ccc(F)cc2)c(-c2ccc(F)cc2)n1 (stereo unspecified) -2.13%
CC(=O)Nc1ccc(OCc2cc(=O)n3ccccc3n2)cc1 1.28%
COc1cccc(CN2CCc3nc(Nc4ccc5c(c4)OCCO5)ncc3C2)c1OC 0%
COc1ccccc1N1CCN(C(CNC(=O)C(=O)NCCN(C)C)c2cccnc2)CC1 (stereo unspecified) 7.93%
CCOc1ccc(NC(=O)c2cc(=O)c3cc(CC)ccc3o2)cc1 6.86%
Cc1cccc(NC(=O)CSc2nc(=O)n(Cc3ccncc3)c3c2CCC3)c1C -6.34%
CCc1ccc(C2=C(C)C(N3CCC(C(=O)Nc4cccc(OC)c4)CC3)=NS2(=O)=O)cc1 -6.18%
Oc1ccc(/C=C/c2nc(-c3ccccc3O)n(-c3ccccc3)n2)c(O)c1 0.649%
CCOc1ccc(NC(=O)CSc2nc(-c3cccs3)cc(C(F)(F)F)c2C#N)cc1 1.98%
COc1ccc(CCNC(=O)c2ccc3c(c2)sc2nc(-c4ccc(C)cc4)cn23)cc1OC 3.23%
CCOc1ccc(Nc2c(S(=O)(=O)c3ccc(C)cc3)cnc3cc(OC)c(OC)cc23)cc1 0.167%
